Reference: the supplement of paper PMC10338343
± gives the standard deviation. The list shows a part of the results, in another mix than the full data.
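Note: 1 nM active piRISC with 0.1 nM target library at 33 °C single turnover.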

The sequences below were run on MIWI (PIWIL1) piRISC loaded with piRNA #1 (30 nt) (assay: pre-steady-state target cleavage rate (min^-1); MIWI and MILI are mouse PIWI proteins and EfPiwi is from a freshwater sponge; tags in brackets are library labels; higher = faster piRNA-guided slicing of the target). Settings: guide: piRNA #1 5'p-UGAGGUAGUAGGUUGUAUAGUAUCCAGAGG; auxiliary factor: 500 nM mouse GTSF1.
In short: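 Active affinity-purified piRISC carrying one synthetic guide (1 nM) was mixed with a transcribed, DNA-blocked target RNA library […] in HEPES–potassium acetate buffer at 33 °C for 0–8 or 0–960 min, with or without 500 nM GTSF1 partner protein. Uncleaved targets were then sequenced and normalised to depth and to weakly complementary targets. Three trials were pooled, and k3 was capped at 0.0001 min^-1. A burst-and-steady-state fit was applied to obtain the pre-steady-state cleavage rate.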
GGAGACCUAUGUAUACAACCUACGACCUCA was tested, and the “pre-steady-state target cleavage rate” value was 0.0158 ± 0.0033.
GGAGACCAUACUAUAGAACCUACUACGUCA was tested, and the “pre-steady-state target cleavage rate” value was 0.392 ± 0.05.
GGAGUGGAUUCUAUACAACCUACUACCACA was tested, and the “pre-steady-state target cleavage rate” value was 0.764 ± 0.048.
With GGUCUGGAUACUAUACAACCUACUACCUACA the “pre-steady-state target cleavage rate” value was 0.849 ± 0.069.
With GGAGUGGAUGACUAUACAACCUACUACCUCA the “pre-steady-state target cleavage rate” value was 1.3 ± 0.13.
For GCUCAGGAUAGUAUACAACCUACUACCUCA, the “pre-steady-state target cleavage rate” value was 0.82 ± 0.043.
GGAGACCUAACUAUACAACCUACAUCCUCA was tested, and the “pre-steady-state target cleavage rate” value was 0.243 ± 0.026.
For GGAGAGGAUAGUAUAGAACCUACUACCUCA, the “pre-steady-state target cleavage rate” value was 0.231 ± 0.043.
“GGAGACCAUACUAUACAACCUACAUGGAGA [g8:g23:cont:t1A]” was tested, and the “pre-steady-state target cleavage rate” value was 0.026 ± 0.01.
GGUCUGGAUAGUAUACAACCUUCUACCUCA was tested, and the “pre-steady-state target cleavage rate” value was 0.541 ± 0.032.
For GCUCUGGAUACUUUACAACGUACUACCUCA, the “pre-steady-state target cleavage rate” value was 1.1 ± 0.072.
In the case of GGAGACGAUAGUAUACAACCUACUAGCUCA, the “pre-steady-state target cleavage rate” value is reported as 0.421 ± 0.067.
In the case of CCUCUGGAUACUAUACAACCUACUACCUUCA, the “pre-steady-state target cleavage rate” value is reported as 1.88 ± 0.12.
GGAGACCUUACUAUACUAGCUACUACCUCA was tested, and the “pre-steady-state target cleavage rate” value was 0.101 ± 0.012.
For CCUCUGGAUACUAUACAACCAUCUACCUCA, the “pre-steady-state target cleavage rate” value was 0.0452 ± 0.0097.
With GCUCUGGAUACUAUACAACCAACUACGUCA the “pre-steady-state target cleavage rate” value was 0.0947 ± 0.012.
GGAGACCUUGCUAUACAACCUACUACCUCA was tested, and the “pre-steady-state target cleavage rate” value was 1.36 ± 0.15.
For CCUCUGGAUACUAUAGAACCUACUACCUCA, the “pre-steady-state target cleavage rate” value was 0.664 ± 0.06.
In the case of GGACUGGAUACUAUACAACGAUCUACCUCA, the “pre-steady-state target cleavage rate” value is reported as under 0.0001.
CCUCUGGAUACUAUACACACCUACUACCUCA was tested, and the “pre-steady-state target cleavage rate” value was 0.0121 ± 0.006.
With GGUCUGGAUACUAUACAACCGACUACCUCA the “pre-steady-state target cleavage rate” value was 0.00977 ± 0.0019.
With GGAGAGGAUACUAUAGAACCUAGUACCUCA the “pre-steady-state target cleavage rate” value was 0.00378 ± 0.0019.
In the case of GGAGAGGAUACUUUACAACCUACUACCACA, the “pre-steady-state target cleavage rate” value is reported as 0.579 ± 0.051.
With GGAGACCUAACUAUUCAACCUACAACCUCA the “pre-steady-state target cleavage rate” value was 0.102 ± 0.024.
For GGAGACCUAACUAAAGAACCUACUACCUCA, the “pre-steady-state target cleavage rate” value was 0.00442 ± 0.0043.
With “GGACUGGAUACUAUACAACCUACUACCUCG [g2:g27:cont:t1G]” the “pre-steady-state target cleavage rate” value was 1.01 ± 0.1.
GGACUGGAUACAAUACAACCAACUACCUCA was tested, and the “pre-steady-state target cleavage rate” value was 0.0933 ± 0.0097.
For GGAGAGGAUACUAUAGAACGUACUACCUCA, the “pre-steady-state target cleavage rate” value was 0.107 ± 0.017.
In the case of GGAGACCUAUCUAUACAACGUAGUACCUCA, the “pre-steady-state target cleavage rate” value is reported as 0.00805 ± 0.0018.
For GGAGACCUUACUAUUCAACCUACUUCCUCA, the “pre-steady-state target cleavage rate” value was 0.181 ± 0.025.
In the case of GGACUGGAAACUAUACUACCUACUACCUCA, the “pre-steady-state target cleavage rate” value is reported as 0.573 ± 0.083.
With GGAGACCUUACUAAUACAACCUACUACCUCA the “pre-steady-state target cleavage rate” value was 0.672 ± 0.06.
With GCUCUGGAUACUAUACAACCUACUAGGACA the “pre-steady-state target cleavage rate” value was 0.166 ± 0.04.
For GCUCCGGAUACUAUACAACCUACUACCUCA, the “pre-steady-state target cleavage rate” value was 1.81 ± 0.12.
For GGACUGGAUACUAUACAACGUACUACCUCA, the “pre-steady-state target cleavage rate” value was 1.09 ± 0.074.
In the case of GGAGAGCAUACUAUACAACCUACUACGUCA, the “pre-steady-state target cleavage rate” value is reported as 0.978 ± 0.08.
In the case of GGAGACCUUACUAUACAACCUACUAUCUCA, the “pre-steady-state target cleavage rate” value is reported as 1.05 ± 0.095.
GGAGAGGAUACAAUACAACCUACAACCUCA was tested, and the “pre-steady-state target cleavage rate” value was 0.696 ± 0.06.
In the case of CCUCUGGAUACUAUACAACCUUCAACCUCA, the “pre-steady-state target cleavage rate” value is reported as 0.308 ± 0.028.
For GGAGACGAUACUAAAGAACCUACUACCUCA, the “pre-steady-state target cleavage rate” value was 1.01 ± 0.066.
